Data published in PubChem BioAssay AID652104 (National Center for Advancing Translational Sciences (NCATS), 2013).
In all, about 410,000 compounds went through this assay and about 7,200 (1.8%) were called active. Inconclusive means that the source gave no clear call. Such entries were picked first, then a sample of the others. Calls follow the shape of the dose curve; as a rule, active = well fitted activation curve with a large enough effect; inconclusive = small, poorly fitted or top-dose-only effect, or another doubt; inactive = no such curve, though single readings can be large or run the other way. Where the call is inconclusive, the potency comes from a doubtful curve fit.

assay: qHTS of TDP-43 Inhibitors; conditions: TDP-43 expressing yeast growth rescue, BacTiter-Glo, 24 h; growth rescue (activation): at 46.1 µM (top of the series) unless noted; also: nearly all actives have a fitted effect of over 50% in size; as to growth rescue (activation): % of control where 0% means no effect
Outline: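 In this qHTS, compounds that restore growth of yeast expressing TDP-43 appear as activators. Cells (OD600=0.02, galactose medium, raffinose-pregrown) are incubated with compound 24 hr at 30 deg C and growth is quantified by BacTiter-Glo.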
Potency is read from the fitted curve at half-maximal effect; tags tell the direction and shape of the fitted curve.

Potency, inactive:
CCC(C)(C)NC(=O)C1CCCN(S(=O)(=O)c2ccc3c(c2)CC(C)N3C(=O)C2CC2)C1 (stereo not given)
Cc1cc(C)cc(NC(=O)CSc2nc3c([nH]c4ccccc43)c(=O)n2-c2ccc(F)cc2)c1
CCOc1ccc2[nH]c(C)c(CN3CCN(C)CC3)c(=O)c2c1
Cc1ccc(C)n1-c1sc2c(c1C(=O)O)CCCC2
c1ccc(-c2cc3ncc4c(n3n2)-c2ccccc2OC4)cc1
Cc1oc(-c2ccc3c(c2)OCCO3)cc1C(=O)O
COc1ccccc1N1CCN(S(=O)(=O)c2c(C)sc3ncn(CC(=O)Nc4ccc(C(C)C)cc4)c(=O)c23)CC1
COc1ccc(-n2c(=O)c3c4c(sc3n(CC(=O)N3CCCCC3C)c2=O)CCC4)c(OC)c1 (stereo not given)
O=C(NC1CCCC1)c1cnn(-c2ccc(F)cc2F)c1C1CCNCC1
CCOC(=O)C1=NNC(C(=O)OCC)C1C(=O)OCC (stereo not given)
Cc1cc(NC(=O)CSc2nnc(-c3ccc4c(c3)OCCO4)o2)no1
O=C(c1ccccc1)c1c[nH]c(C(=O)NCc2cccnc2)c1
CCc1nc(NCCN)c(C#N)c2c1CSC(C)(C)C2

Potency, inconclusive:
Cc1ccccc1CC1(CO)CCCN(C(=O)c2ccc3ncccc3c2)C1 (stereo not given) 17.8 µM [activator, single point]
COc1ccccc1OCC(=O)N(Cc1nc(-c2ccccc2)no1)C1CCCCC1 14.1 µM [activator, partial curve]
O=[N+]([O-])c1ccccc1C=NN1CCCCCC1 6.31 µM [activator, single point]
Cc1cc(C)c(S(=O)(=O)N2CCCCCC2)cc1Br 6.31 µM [activator, single point]
CCOC(=O)c1c(CC(C)C)csc1/N=C/C1=C(O)CCCC1=O 2.82 µM [activator, full curve]
CCOC(=O)c1c(NC(=O)CCC(=O)O)sc2c1CCCCC2 1.58 µM [activator, full curve]
Fc1ccc(-c2cnc(-c3cccs3)o2)cc1 12.6 µM [activator, partial curve]
CC(C)(C)CC(=O)NC(=S)NCc1ccccc1 15.8 µM [activator, single point]
CCOc1ccc(OCC(=O)Nc2cc(Cl)ccc2-n2cncn2)cc1 20 µM [activator, partial curve]
COc1cnn(-c2ccccc2)c(=O)c1SCc1ccc(Cl)cc1Cl 20 µM [activator, single point]
CC(C)n1nnnc1C1c2ccccc2C(=O)N1CCOc1ccccc1 (stereo not given) 12.6 µM [activator, partial curve]
COc1ccc(CCNC(=S)c2ccccc2)cc1OC 14.1 µM [activator, partial curve]
c1ccc(-n2ncc3c(NCc4cccs4)ncnc32)cc1 7.94 µM [activator, full curve, poor fit]
O=C(Nc1c(C(=O)N2CCN(c3ccccc3F)CC2)oc2ccccc12)c1ccco1 11.2 µM [activator, partial curve]
CC(C)(C)c1cccc(Cn2nnc3ccccc32)c1O 14.1 µM [activator, single point]
CC(C)Cn1c(=O)c2c(nc3n2CCCN3CCc2ccccc2)n(C)c1=O 20 µM [activator, partial curve]
Cc1ccc(-c2noc(CNC(=O)COc3ccccc3C)n2)cc1 17.8 µM [activator, single point]
C[C@@H]1CC=C[C@H]2[C@H]1C(=O)N(Cc1ccccc1)[C@H]2c1ccc(C(F)(F)F)cc1 39.8 µM [activator, partial curve, poor fit]
O=C(CSc1ccc(-c2ccccn2)nn1)c1ccccc1 12.6 µM [activator, single point]
Cc1ccc(C(=O)NNC2=Nc3cccc4cccc2c34)cc1 3.55 µM [activator, partial curve]
O=C(NCc1ccc(F)cc1)c1cnc(N2CCOCC2)c2ccccc12 35.5 µM [activator, partial curve]
Cc1cc(C)cc(NC(=O)C2CCCN(c3cnccn3)C2)c1 (stereo not given) 15.8 µM [activator, partial curve]
Cc1ccc(Cl)cc1NC(=O)c1cc2c(=O)n3cccc(C)c3nc2n1C 1.12 µM [activator, full curve]
CCN(C(=O)c1sc2cc(OC)ccc2c1Cl)c1ccccc1 14.1 µM [activator, single point]
Cc1ccc(NC(=O)CN2c3ccccc3S(=O)(=O)c3ccccc32)cc1F 11.2 µM [activator, partial curve]
O=C(NCc1ccccn1)c1cc(-c2ccccc2)nc2ccccc12 5.62 µM [activator, partial curve, poor fit]
Cc1cccc(-c2nnc(NC(=O)c3ccc(Cl)cc3)o2)c1 22.4 µM [activator, single point]
Cc1noc(C)c1COC(=O)c1cc(S(=O)(=O)N2CCOCC2)ccc1Cl 2.82 µM [activator, partial curve]
Cc1ccc(NC(=O)/C(C#N)=C/c2ccccc2Cl)cc1C 22.4 µM [activator, single point]
CN(C)C(=O)CSc1nc2cc(S(=O)(=O)N3CCOCC3)ccc2o1 35.5 µM [activator, single point]
CC(C)(C)NC(=O)C(c1cccs1)N(Cc1cccs1)C(=O)c1csnn1 (stereo not given) 17.8 µM [activator, partial curve]
O=C(CSc1nnc(-c2cccs2)o1)OCc1ccccc1 35.5 µM [activator, partial curve]
Cc1ccc(Cl)cc1NC(=O)COC(=O)C1CCCCC1 14.1 µM [activator, partial curve]
CCCCNc1ncnc2c1cnn2-c1ccccc1 35.5 µM [activator, single point]
Cc1noc(C)c1CSCC(=O)N1CCN(c2ccc([N+](=O)[O-])cc2)CC1 11.2 µM [activator, partial curve, poor fit]
COc1ccc(NS(=O)(=O)c2ccc3c(c2)Cc2ccccc2-3)cn1 31.6 µM [activator, single point]
CCOC(=O)N1CCN(C(=O)/C=C/c2c(C)nn(-c3ccc(F)cc3)c2Cl)CC1 22.4 µM [activator, partial curve]
Cc1ccccc1Nc1sc(C(=O)c2ccc(F)cc2)c(N)c1C(=O)NCCc1ccccc1 3.55 µM [activator, full curve]
CCCCCC(=O)NC(=S)Nc1ccccc1C(=O)OC 6.31 µM [activator, partial curve, poor fit]
CCOC(=O)C1=NN(C(=O)c2ccc(OC)cc2)C(O)(c2ccc(Cl)cc2)C1 (stereo not given) 25.1 µM [activator, single point]
O=C(Nc1cccc2ccccc12)N(c1ccccc1)c1ccccc1 20 µM [activator, partial curve]
Cc1ccc2ncc(S(=O)(=O)c3ccccc3)c(N3CCCCC3C)c2c1 (stereo not given) 15.8 µM [activator, single point]
O=C1/C(=C/c2cccs2)CCc2ccccc21 31.6 µM [activator, partial curve, poor fit]
COc1ccc(-c2cn[nH]c2-c2ccc(OCc3ccc([N+](=O)[O-])cc3)cc2O)cc1 1.78 µM [activator, partial curve]
O=C(N/N=C\c1ccc([N+](=O)[O-])o1)c1cncc(Br)c1 3.16 µM [activator, full curve]
COc1ccc(N2C(=O)C(Cl)=C(N3CCCC(C)C3)C2=O)cc1 (stereo not given) 12.6 µM [activator, partial curve]

Potency, active:
CSc1nccc(-c2c(-c3ccc(Cl)cc3)noc2C)n1 17.8 µM
COc1ccc2nc3oc(C(=O)N4CC(C)CC(C)C4)cc3cc2c1 (stereo not given) 12.6 µM
Brc1ccccc1C1CC(c2ccccc2)=Nc2ccccc2N1 (stereo not given) 35.5 µM
CCOc1cccc(/C=C/c2ccc3cccc(O)c3n2)c1O 11.2 µM
COc1cc(OC)c(C2SCCCS2)cc1OC 35.5 µM
COC(=O)c1ccn(CSc2cc(Cl)ccc2Cl)n1 12.6 µM
O=C(Nc1ccccc1)c1cc(C2CCCN(C(=O)OCc3ccccc3)C2)on1 (stereo not given) 35.5 µM
Cc1c(NC(=O)CSc2ccc(Cl)cc2)cccc1-c1nc2ncccc2o1 14.1 µM

Growth rescue (activation), inconclusive:
COc1cc(O)c(CC=C(C)C)c(O)c1C(=O)CCc1ccc(O)cc1 -87.1% [activator]
COc1ccccc1C/C(N)=N/OC(=O)c1ccc2c(c1)OCO2 -64.7% [activator]
CC(=NNC(=S)N1CC2CCC(CC2)C1)c1ccncn1 -85.1% [activator]
